From ChEMBL document CHEMBL4888484, “Replenishing the malaria drug discovery pipeline: Screening and hit evaluation of the MMV Hit Generation Library 1 (HGL1) against asexual blood stage Plasmodium falciparum ,using a nano luciferase reporter read-out” (2022) come the findings set out here.

The test system of this assay is Plasmodium falciparum. As to the kind of experiment: Primary screen in NF54 nanoGlo assay, in single point, at 2uM, 72h; a lower Z score goes with more inhibition. It counts as functional, Erythrocyte. The note with it: timepoint 72 hour.

Structures are written as SMILES. Where “and” joins values, the source holds several entries; their conditions need not be identical. Identical values can stand only once. Among all 150,000 compounds or so, about 540 (0.36%) showed an effect of 50% or more. The list shows a part of the results.

One may read the % Inhibition as the change of the read-out against control, counted positive when it falls. As to `CCN(C)C[C@@H](C)CNc1nc(C)nc2c1Cc1ccccc1OC2`, the “% Inhibition” value is listed as -6% and the Z score was 0.84.
Take `CCN1CCN(Cc2csc(-c3ccccc3)n2)[C@H]2CS(=O)(=O)C[C@H]21`: the “% Inhibition” value was -13% and the Z score is reported as 1.71.
For `Fc1cc(F)cc(CN2CCC(OC[C@H]3CCCO3)CC2)c1`, the “% Inhibition” value stood at 4% and the Z score is on record as -0.55.
For `CCS(=O)(=O)N1CCC[C@H](C(=O)NC(C)(C)c2c[nH]nn2)C1`, the “% Inhibition” value is recorded as -1% and the Z score came to 0.11.
In the case of `O=C1C[C@H](NC(=O)Nc2ccccc2)CN1`, the “% Inhibition” value is listed as -5% and the Z score is 0.91.
As for `CCOC(=O)Nc1cc(Cl)ccc1Cl`, the “% Inhibition” value is -6% and the Z score was determined as 0.8.
For the compound `Cc1cc(C)c(NC(=O)CN(C)C(=O)Nc2cccnc2)c(C)c1`, the “% Inhibition” value was -6% and the Z score came to 0.82.
The matching figures for `COc1ccc(CN(CCc2c[nH]c3ccccc23)C(=O)CN(C(=O)Cc2ccc(F)cc2)C2CC2)cc1OC`: 5% and -0.69.
For `O=C(Cn1c(=O)ncc2c1cnn2[C@H]1CCS(=O)(=O)C1)Nc1ccc(F)c(Cl)c1`, the “% Inhibition” value is 5% and the Z score was -0.67.
Consider `Cc1c(Cl)cccc1C(=O)N1CC(C(C)(C)O)C1`, for which the “% Inhibition” value is listed as 16% and the Z score is given as -1.8.
In the case of `NCc1nc(C(=O)N2CCN(c3ccccc3F)CC2)cs1`, the “% Inhibition” value was -9% and the Z score came to 1.35.
The like results for `Cc1scc(CCNC(=O)CN2CC[C@H](N(C)C)C2)c1C` were, in that order, -4% and 0.65.
Consider `COc1ccc(C(=O)N[C@H]2CC(=O)N(C(C)C)C2=O)cn1`, for which the “% Inhibition” value is listed as -16% and the Z score came out at 2.5.
On to `Cc1cc(C)cc(OCc2nc(CN(C(=O)c3cccc(C)c3)C3CC3)cs2)c1`, for which the “% Inhibition” value is -2% and the Z score stood at 0.34.
For the compound `Cc1ncc(C)c(N2CCC(CNC(=O)[C@@H]3CCCCN3C)CC2)n1`, the “% Inhibition” value is on record as -11% and the Z score is recorded as 1.84.
With `O=C(NC[C@@H]1CCCO1)c1cnc(Cc2c(Cl)cccc2Cl)nc1O`, the “% Inhibition” value was -5% and the Z score turned out to be 0.69.
Regarding `Cc1ncsc1CCN(C)Cc1ccc2c3c(cccc13)C(=O)OC2`, the “% Inhibition” value is given as -20% and the Z score is 1.86.
Consider `NCCOc1ccc(F)cc1C(=O)N(Cc1cccnc1)C1CCCCC1`, for which the “% Inhibition” value is given as 9% and the Z score was -1.18.
Take `Cc1csc(C[C@H]2CCN(C(=O)c3ccc4cc[nH]c4n3)C2)n1`: the “% Inhibition” value is -2% and the Z score is on record as 0.26.
As to `Cc1ccccc1CNC(=O)CCS(=O)(=O)c1ccc2c(c1)CC(=O)N2C`, the “% Inhibition” value is given as -7% and the Z score is 0.87.
For the compound `N=C1CCCN1c1ccc(Cl)c(Cl)c1`, for the setting “2 µM”, the “% Inhibition” value is -2% and -4%; the Z score is 0.2 and 0.51.
As to `CC(C)[C@@H](C(=O)Nc1cnc2c(c1)CCCC2)N1CCCS1(=O)=O`, the “% Inhibition” value is -7% and the Z score worked out at 0.86.
As to `CCCc1ncc(C(=O)O[C@@H](C)Cc2cccnc2)s1`, the “% Inhibition” value was -20% and the Z score was 3.8.
As to `O=C(NCCc1cscn1)c1coc(CN2CCc3ccccc3C2)n1`, the “% Inhibition” value is 5% and the Z score was -0.7.
Turning to `Cn1c(N2CCN(C(=O)Cc3ccccc3)CC2)cc(=O)n(C)c1=O`, the “% Inhibition” value was -6% and the Z score is on record as 1.02.
The like results for `CCC(=O)N1CCCN(S(=O)(=O)C2CCCC2C)CC1` (stereo not drawn) were, in that order, -6% and 1.13.
Consider `c1nc(N2CCOCC2)ncc1CNCc1nnc2n1CCCCC2`, for which the “% Inhibition” value is reported as -7% and the Z score is given as 0.59.
The like results for `Cc1nc([C@H]2CCN(C(=O)Nc3c(C)noc3C(C)C)C2)n[nH]1` were, in that order, -4% and 0.6.
As to `CN(CCCNC(=O)Cc1n[nH]c(=O)c2ccccc12)Cc1ccccc1`, the “% Inhibition” value is reported as 37% and the Z score is -5.3.
As for `COCCN(C)Cc1ncnn1-c1cccc(C)n1`, the “% Inhibition” value is -17% and the Z score is listed as 3.18.
Turning to `CN(C)c1ccc(C(=O)N(Cc2ccccc2)[C@H](CO)Cc2cnc[nH]2)cn1`, the “% Inhibition” value was 6% and the Z score is -1.1.
For `COc1ccccc1NC(=O)c1ccc(NC(=O)COC(=O)CCNS(=O)(=O)c2ccc3ccccc3c2)cc1`, the “% Inhibition” value is -7% and the Z score is 1.14.
In the case of `CCOc1ccc(-c2cc(C(=O)N(Cc3cccc(F)c3)[C@H]3CCS(=O)(=O)C3)no2)cc1`, the “% Inhibition” value was 5% and the Z score was -0.55.
The matching figures for `O=S(=O)(NC1(c2cccc(Cl)c2)CC1)N1CCCCC1`: 0% and 0.01.
On to `CN=C(NCc1ccccc1)NC(C)C`, for which the “% Inhibition” value is reported as 0% and the Z score is listed as -0.03.
Take `CCN(CC)C(=O)c1sc2c(c1C)c(=O)n(-c1ccc(C)c(C)c1)c(=O)n2CC(=O)NC[C@H]1CCCO1`: the “% Inhibition” value is reported as 15% and the Z score was -1.82.
In the case of `O=C(NCCc1nc2c(c(C(F)(F)F)n1)CCCC2)c1ccsc1`, the “% Inhibition” value is on record as -4% and the Z score amounted to 0.57.
The like results for `CCN1CCN(C(=O)c2cc(-c3ccc4c(c3)CCO4)no2)C(C)(C)C1=O` were, in that order, 5% and -0.58.
Consider `O=C(N[C@H]1CC(=O)N(Cc2ccccc2Cl)C1)c1coc2c1C(=O)CCC2`, for which the “% Inhibition” value worked out at 8% and the Z score was -1.48.
The like results for `CO[C@H]1COC[C@H]1NC(=O)N1CCC2(CC(=O)c3ccccc3O2)C1` (stereo partly drawn) were, in that order, -5% and 0.43.
For `CN(C)C(=O)CN1CCN(C(=O)Cn2ccc(C(F)(F)F)n2)CC1`, the “% Inhibition” value is listed as -5% and the Z score is recorded as 0.63.
Consider `COCc1ncc(C)n1C[C@H]1CCCN(C2CCCCCC2)C1`, for which the “% Inhibition” value is listed as 3% and the Z score is -0.33.
`CC[C@@H](C(=O)NC1CCCCC1)N1CCn2nc(C)cc2C1`: the “% Inhibition” value is recorded as -4% and the Z score was 0.55.
For the compound `CCCC1(CCC)NC(=O)N(Cc2cccc3cccnc23)C1=O`, the “% Inhibition” value is -13% and the Z score is on record as 2.15.
As to `c1cnc2ccc(OCc3nc(CC4CC4)no3)cc2c1`, the “% Inhibition” value is on record as 6% and the Z score is -0.77.
For the compound `O=C(NCc1cccs1)C1CCOCC1`, the “% Inhibition” value is listed as 7% and the Z score was -0.94.
Regarding `N#Cc1nc(NC(=O)COC[C@H]2CCCO2)ccc1Br`, the “% Inhibition” value is listed as -2% and the Z score turned out to be 0.38.
On to `CCCS(=O)(=O)CC(=O)Nc1cc(Br)c(F)cc1F`, for which the “% Inhibition” value is reported as -12% and the Z score came out at 1.43.
In the case of `Cc1nn(C(=O)CCC(=O)N2CCC(C)(c3noc(-c4ccncc4)n3)CC2)c2ccccc12`, the “% Inhibition” value is given as 6% and the Z score is given as -0.77.
With `CCC(CC)C(=O)Nc1cc(C)cc(C)c1`, the “% Inhibition” value is reported as 5% and the Z score is -0.64.
On to `Cc1ccc(CN2C[C@H](O)[C@@H](F)C2)c2ccccc12`, for which the “% Inhibition” value is given as -12% and the Z score is 2.35.
The matching figures for `COC[C@@H]1C[C@H](OC)CN1C(=O)c1cc(Cl)cn1C`: -4% and 0.48.
In the case of `Cc1cc(OCCc2cc(Cl)c3c(c2)OCCCO3)nn1C`, the “% Inhibition” value is -5% and the Z score is 0.84.
Turning to `C[C@H](NCCN1CCCC1=O)c1ccc(F)c(Cl)c1`, the “% Inhibition” value is recorded as -7% and the Z score is 0.96.
